In the supplement of paper PMC4604168 (melanoma cell lines):
Some of the results follow. Single values are uncertain, as repeats are few or missing.

What was measured:
Experiment in all cases: cell count relative to DMSO control; melanoma cells; higher = more viable cells
Conditions in all cases: library dose: standard library concentration; 72 h
G361 = test system: G361
IPC-298 = test system: IPC-298
IST-MEL1 = test system: IST-MEL1
LB2518-MEL = test system: LB2518-MEL
LOXIMVI = test system: LOXIMVI
MEL-HO = test system: MEL-HO
MZ2-MEL = test system: MZ2-MEL
MeWo = test system: MeWo
RPMI7951 = test system: RPMI7951
RVH-421 = test system: RVH-421
SkMel28 = test system: SkMel28
SkMel2 = test system: SkMel2
SkMel30 = test system: SkMel30
SkMel5 = test system: SkMel5
UACC257 = test system: UACC257
UACC62 = test system: UACC62
WM115 = test system: WM115
WM1716 = test system: WM1716
WM3526 = test system: WM3526
WM1745 = test system: WM1745
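Further: cells treated in 1,536-well plates, then fixed and DAPI-stained, with nuclei counted from automated high-throughput microscope images.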

Compound	cell count (G361) [%]	cell count (IPC-298) [%]	cell count (IST-MEL1) [%]	cell count (LB2518-MEL) [%]	cell count (LOXIMVI) [%]	cell count (MEL-HO) [%]	cell count (MZ2-MEL) [%]	cell count (MeWo) [%]	cell count (RPMI7951) [%]	cell count (RVH-421) [%]	cell count (SkMel28) [%]	cell count (SkMel2) [%]	cell count (SkMel30) [%]	cell count (SkMel5) [%]	cell count (UACC257) [%]	cell count (UACC62) [%]	cell count (WM115) [%]	cell count (WM1716) [%]	cell count (WM3526) [%]	cell count (WM1745) [%]
O=c1[nH]nc(Sc2ncc([N+](=O)[O-])s2)n1-c1ccc2c(c1)OCCO2 + COc1cc2ncnc(Nc3ccc(Oc4ccccc4)cc3)c2cc1OC [SrcI1] (first compound 1 µM, partner dose 10 µM)	58.9	82.1	79	162	199	71.5	90.3	68.7	31.9	114	99.7	101	100	63.5	82.4	58.6	59.3	75.8	67.8	
O=c1[nH]nc(Sc2ncc([N+](=O)[O-])s2)n1-c1ccc2c(c1)OCCO2 + C#Cc1cccc(Nc2ncnc3cc(OCCOC)c(OCCOC)cc23)c1 [erlotinib] (first compound 1 µM, partner dose 4 µM)	75.4	67.5	95.8	69.8	65.5	79	70	78.7	63.9	58.5	95	85.5	70.8	59.8	84.7	53.5	61.6	70.8	78	51.7
C[C@@H]1CCN(C(=O)CC#N)C[C@@H]1N(C)c1ncnc2[nH]ccc12 + CN(NC(=O)CC(=O)NN(C)C(=S)c1ccccc1)C(=S)c1ccccc1 [STA4783] (first compound 5 µM, partner dose 0.03 µM)	40.1	92.7	27.4	3.34	79.9	91.7	150	16.9	108	65.7	20	65.9	120	63.9	120	29.9	23.4	82.1	109	31
O=c1[nH]nc(Sc2ncc([N+](=O)[O-])s2)n1-c1ccc2c(c1)OCCO2 + OCc1c[nH]c2ccccc12 [Indole-3-carbinol] (first compound 1 µM, partner dose 4 µM)	89.5	94.3	98.5		95.7	102		101	101	92.5	134	94.2	93.2	86.9	93.8	80	101	101	91.9	80.1
CC1(C)NC(=O)N(c2ccc([N+](=O)[O-])c(C(F)(F)F)c2)C1=O [nilutamide] + CO[C@@H]1[C@H](N(C)C(=O)c2ccccc2)C[C@H]2O[C@]1(C)n1c3ccccc3c3c4c(c5c6ccccc6n2c5c31)C(=O)NC4 [Midostaurin] (first compound 5 µM, partner dose 0.4 µM)	55.7	86.7	79.9		39.7	79.6		76.2	37.9	74.7	82.7	74.3	83.4	64.5	82.8	73.1	43.3	38.5	88	50
O=c1[nH]nc(Sc2ncc([N+](=O)[O-])s2)n1-c1ccc2c(c1)OCCO2 + CC(C)(C)c1cnc(CSc2cnc(NC(=O)C3CCNCC3)s2)o1 [SNS-032] (first compound 1 µM, partner dose 0.05 µM)	91	131	88.8	85.2	80.7	102	118	95.5	47.6	86.8	56.4	86.9	114	83.6	96.1	69.5	77.1	77	96.6	109
O=c1[nH]nc(Sc2ncc([N+](=O)[O-])s2)n1-c1ccc2c(c1)OCCO2 + O=S(=O)(c1ccccc1)N(CC(F)(F)F)c1ccc(C(O)(C(F)(F)F)C(F)(F)F)cc1 [T0901317] (first compound 1 µM, partner dose 7 µM)	90.5	86.7	103	90.3	97.7	88.2	98.2	87.5	97.1	213	74.2	83.2	101	64.1	88.8	76.8	95.4	126	70.7	
O=c1[nH]nc(Sc2ncc([N+](=O)[O-])s2)n1-c1ccc2c(c1)OCCO2 + O=c1cc(-c2cccc3c2Sc2ccccc2S3)oc(N2CCOCC2)c1 [KU55933] (first compound 1 µM, partner dose 5 µM)	76.7	90.5	91.3	96.1	83.5	79.3	119	99	62.5	106	92.4	84.4	112	106	92.6	76.1	120	83.8	94	
O=c1[nH]nc(Sc2ncc([N+](=O)[O-])s2)n1-c1ccc2c(c1)OCCO2 + Cc1cc([N+](=O)[O-])ccc1NS(=O)(=O)c1cc(Cl)ccc1Cl [FH535] (first compound 1 µM, partner dose 5 µM)	38.1	52.9	59.7		60.3	55.2		56.7	71.3	65.9	55		77.2	53.1	68.9	75	70.4	68.5	74.8	
O=c1[nH]nc(Sc2ncc([N+](=O)[O-])s2)n1-c1ccc2c(c1)OCCO2 + CCc1ccc(CCOc2ccc(CC3SC(=O)NC3=O)cc2)nc1 [pioglitazone] (first compound 1 µM, partner dose 10 µM)	95.4	96.1	96.6	89.5	89.6	115	127	101	92.8	85	88.8	100	93.7	69.1	81.7	81.1	88.6	91.7	105	
